Measurements reported in patent publication EP0490919B1, “CYTOPROTECTIVE COMPOUNDS BEARING UNSATURATED HYDROCARBON GROUPS HAVING 16 TO 20 CARBON ATOMS” (VIRGINIA COMMONWEALTH UNIVERSITY, priority 1989, dated 1991).
Read-outs that look alike come from different tables or passages of the source.

Tests used:
[1] = test system: PLA2 activities derived from human platelets and human polymorphonuclear leucocytes (PMNs); assay: In vitro PLA2 activity inhibition by fatty acids
[2] = test system: PLA2 activities derived from human platelets and human polymorphonuclear leucocytes (PMNs); details: human platelet and PMN PLA2; all three acids to approximately the same extent; cited from earlier work

Row | Compound | inhibition of in vitro PLA2 activity [2] | also measured
1 | CCCCC[C@H](O)/C=C/C1=C(CCCCCCC(=O)O)C(=O)CC1 [PGB1, prostaglandin B1] | – | PLA2 inhibitory activity (Ca^++-dependent PLA2s): not inhibitory; less inhibitory than the precursor arachidonic acid ([1]; PLA2 inhibition relative to arachidonic acid): at least 2 orders of magnitude
2 | CCCCC/C=C\C/C=C\C/C=C\C/C=C\CCCC(=O)O [arachidonic acid] | inhibited | –
3 | CCCCC/C=C\C/C=C\CCCCCCCC(=O)O [linoleic acid] | inhibited | –
4 | CCCCCCCC/C=C\CCCCCCCC(=O)O [oleic acid] | inhibited | –
5 | CCCCCCC(O)C/C=C\CCCCCCCC(=O)O (stereo not drawn) [ricinoleic acid, 12-hydroxy-oleic acid] | – | inhibition of in vitro PLA2 activity ([1]; 12-hydroxylation of oleic acid, recent studies): non-inhibitory
